In paper PMC6919601, “Identification of Plasmodium dipeptidyl aminopeptidase allosteric inhibitors by high throughput screening” (PLoS ONE, 2019):
Out of some 110,000 compounds screened, about 230 (0.21%) showed an effect of 50% or more. The list shows a part of the results.

Molecular target: DPAP1 (Plasmodium falciparum, UniProt Q8IIJ9)
Assay: primary screen, percent inhibition; read by cleavage of a fluorogenic dipeptide substrate; higher = more effect of the substance
Design: species or system P. falciparum D10 trophozoite lysates; single well
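Note: 30 min substrate incubation versus DMSO and 10 µM JCP410 controls.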

Sequence of DPAP1 (Q8IIJ9 whole entry, looked up): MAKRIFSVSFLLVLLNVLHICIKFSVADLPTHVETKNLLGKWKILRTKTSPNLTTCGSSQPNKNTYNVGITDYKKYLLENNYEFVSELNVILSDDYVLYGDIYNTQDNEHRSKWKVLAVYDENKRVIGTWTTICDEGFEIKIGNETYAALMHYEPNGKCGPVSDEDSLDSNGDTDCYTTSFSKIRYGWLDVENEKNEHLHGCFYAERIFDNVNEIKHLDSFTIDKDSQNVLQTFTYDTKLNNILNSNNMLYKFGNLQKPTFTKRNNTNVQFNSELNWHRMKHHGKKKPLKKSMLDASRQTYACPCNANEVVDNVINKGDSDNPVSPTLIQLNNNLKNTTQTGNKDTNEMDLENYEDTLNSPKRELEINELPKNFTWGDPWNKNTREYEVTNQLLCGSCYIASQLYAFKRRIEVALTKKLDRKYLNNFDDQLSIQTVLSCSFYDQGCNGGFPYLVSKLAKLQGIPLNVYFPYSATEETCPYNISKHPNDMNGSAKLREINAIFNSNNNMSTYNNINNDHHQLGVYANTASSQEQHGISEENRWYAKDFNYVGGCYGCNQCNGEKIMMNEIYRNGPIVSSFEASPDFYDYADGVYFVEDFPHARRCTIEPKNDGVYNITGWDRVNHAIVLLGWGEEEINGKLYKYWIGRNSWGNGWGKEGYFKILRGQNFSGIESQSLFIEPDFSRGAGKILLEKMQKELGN

Compound | % Inhibition @ 10 uM
COc1cccc(CN(C(=O)c2oc3ccc(Cl)cc3c2C)C2CCS(=O)(=O)C2)c1 (stereo not shown) | 2.02%
CC1CCC(C(C)C)C(OCC(O)CN2CCc3ccccc3C2)C1 (stereo not shown) | 2.78%
CC(C)c1ccc(C2=CC(c3c(F)cccc3Cl)n3ncnc3N2)cc1 (stereo not shown) | 0.219%
COCCNC(=O)CN1CCN(Cc2ccc(C)cc2)C1=O | -2.7%
Nc1cccc(C(=O)Nc2cccc(C(=O)NC3CCCCC3)c2)c1 | 0.245%
O=C(Nc1ccc(NC(=O)c2ccccc2Cl)cc1)c1ccc2c(c1)OCCO2 | -8.92%
N#CCCn1nc(-c2ccccc2)cc1O | -1.77%
CC(C)(C)c1ccc(OCC(O)CN2C(=O)c3ccccc3C2=O)cc1 (stereo not shown) | 0.131%
FC(F)(F)c1cccc(CN2CCN(c3ccccc3Cl)CC2)c1 | 2.47%
CCOc1ccc(-n2cccc2/C=C2/C(=O)NC(=O)N(Cc3ccco3)C2=O)cc1 | -1.54%
N#CCNC(=O)[C@H](CC1CCCCC1)NC(=O)NC1CCCCC1 | 1.35%
O=C(c1ccccc1Br)N1CCN(c2ccccc2)CC1 | -2.12%
CCOC(=O)c1cc(-c2ccc(N)cc2)nc2ccc(Br)cc12 | 5.35%
Cc1noc(C)c1C(c1ccccc1)S(=O)(=O)c1ccccc1 (stereo not shown) | 1.67%
COc1ccc2c(c1)C(=O)C(C1(O)C(=O)N(C)c3ccccc31)CC2 (stereo not shown) | 7.85%
COc1ccc(/N=C2/S/C(=C\c3cc(Br)ccc3O)C(=O)N2C)cc1 | 1.05%
Cc1ccc(C(=O)C2=C(O)C(=O)N(CC3CCCO3)C2c2ccc(C(C)(C)C)cc2)o1 (stereo not shown) | 4.31%
CCOc1ccc2n[se]nc2c1 | 3.47%
CC(C)(C)OC(=O)N1CCC(c2c(C(=O)N3CCc4ccccc4C3)cnn2-c2ccccc2)CC1 | -0.887%
O=C1C2C3CCC(C3)C2C(=O)N1c1ccc(F)cc1 (stereo not shown) | -2.34%
CCN(CC)c1ccc(NC(=O)Nc2ccc(Cl)cc2)cc1 | -0.0369%
CCOc1ccc2nc(Nc3nc4ccccc4nc3Cl)sc2c1 | -2.05%
COc1ccc(Cl)cc1NC(=O)COc1ccc(S(=O)(=O)NC2CCCC2)cc1 | 2.5%
COc1ccc(-c2cc(C(=O)NCc3cccnc3)c3ccccc3n2)cc1 | 1.27%
COc1ccc(-c2cc3c4cccn4ccn3c2)cc1 | -0.744%
Cc1cccc(NC(=O)C2CC(=O)N(c3ccc(Cl)cc3)C2)c1 (stereo not shown) | -0.999%
COc1ccc(Br)cc1CNC(=O)C1CCCN(S(=O)(=O)N2CCOCC2)C1 (stereo not shown) | 4.89%
O=C(O)c1cccc(S(=O)(=O)N2Cc3ccccc3C2)c1 | 3.16%
